According to article PMC5083789:
These are yes or no findings as the source states them, for the method shown. Some results given as binding are weak or reduced against the parent protein; the word gives no strength. For some of these results: Tags and fused reporters may be left off the sequences shown.

Amino acid sequences for entries named in this document (tags omitted).
UniProt P0A3F4: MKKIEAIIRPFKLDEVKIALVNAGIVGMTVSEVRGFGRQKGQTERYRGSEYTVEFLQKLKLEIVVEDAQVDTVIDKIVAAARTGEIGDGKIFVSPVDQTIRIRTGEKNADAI

The molecules below were run against PII (glnB product), full-length GAL4AD or GAL4BD fusion (Synechococcus elongatus PCC7942) (UniProt P0A3F4) (assay: yeast three-hybrid; GAL4AD fusion as prey, GAL4BD fusion and HA:PipX (bridge) from a pBridge plasmid; PJ696/Y187 diploids; HIS3 and ADE2 reporters, growth on medium lacking His or Ade; wild-type proteins, or one mutant of PipX or of PII with the other two proteins wild type).

binding | Molecule
binds | PII (glnB product), full-length GAL4AD or GAL4BD fusion (from UniProt P0A3F4 1-112)

What follows are molecules tested on PII (glnB product), full-length GAL4AD or GAL4BD fusion (Synechococcus elongatus PCC7942) (UniProt P0A3F4) (assay: two-hybrid; GAL4AD and GAL4BD fusions in S. cerevisiae PJ696/Y187 diploids; HIS3 and ADE2 reporters, growth on medium lacking His or Ade).

Molecule | binding
PipX E4A, GAL4BD fusion (protein, UniProt Q7X386 1-89) MASANYLNHPTFGLLYQICSFGDSKELFATLYAQRLFFLVAFDARGTRFEPIGRNEARMLVDNRLRQLRRDASLQEYNQLQQVFKQTFL | no binding
PipX R54C, GAL4BD fusion (protein, UniProt Q7X386 1-89) MASENYLNHPTFGLLYQICSFGDSKELFATLYAQRLFFLVAFDARGTRFEPIGCNEARMLVDNRLRQLRRDASLQEYNQLQQVFKQTFL | binds
PipX 2-70 (helix B deleted), GAL4AD or GAL4BD fusion (domain or fragment, UniProt Q7X386 2-70) ASENYLNHPTFGLLYQICSFGDSKELFATLYAQRLFFLVAFDARGTRFEPIGRNEARMLVDNRLRQLRR | binds

Other lines, results leading:

binding | Molecule
binds | PipX, full-length GAL4AD or GAL4BD fusion (protein, UniProt Q7X386 1-89) MASENYLNHPTFGLLYQICSFGDSKELFATLYAQRLFFLVAFDARGTRFEPIGRNEARMLVDNRLRQLRRDASLQEYNQLQQVFKQTFL
binds | PipX L80Q, GAL4AD or GAL4BD fusion (protein, UniProt Q7X386 1-89) MASENYLNHPTFGLLYQICSFGDSKELFATLYAQRLFFLVAFDARGTRFEPIGRNEARMLVDNRLRQLRRDASLQEYNQQQQVFKQTFL
no binding | PipX Y32A, GAL4AD or GAL4BD fusion (protein, UniProt Q7X386 1-89) MASENYLNHPTFGLLYQICSFGDSKELFATLAAQRLFFLVAFDARGTRFEPIGRNEARMLVDNRLRQLRRDASLQEYNQLQQVFKQTFL
binds | PipX L65Q, GAL4BD fusion (protein, UniProt Q7X386 1-89) MASENYLNHPTFGLLYQICSFGDSKELFATLYAQRLFFLVAFDARGTRFEPIGRNEARMLVDNRQRQLRRDASLQEYNQLQQVFKQTFL
binds | PipX R35A, GAL4AD or GAL4BD fusion (protein, UniProt Q7X386 1-89) MASENYLNHPTFGLLYQICSFGDSKELFATLYAQALFFLVAFDARGTRFEPIGRNEARMLVDNRLRQLRRDASLQEYNQLQQVFKQTFL

Molecular target: PII (glnB product), full-length GAL4AD or GAL4BD fusion (Synechococcus elongatus PCC7942) (UniProt P0A3F4)
Test: as above
Remark: another data set of the same source

binding | Molecule
binds | PII (glnB product), full-length GAL4AD or GAL4BD fusion (from UniProt P0A3F4 1-112)
